In the supplement of paper PMC12889115:
Some of the results follow. Many values rest on one well or one pass, so single values are uncertain.
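Note: polymyxin B level opens the outer membrane while sparing the inner membrane, with novobiocin wells as reference growth inhibitor.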

The compounds below were run on Salmonella enterica serovar Typhimurium SL1344 (assay: bacterial growth OD600 after 18 h in MHB with 0.5 µg/mL polymyxin B; higher = more bacterial growth (less inhibition)). Conditions: 25 µM; polymyxin B 0.5 µg/mL; system: broth.
Method: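 Secondary screen of the 553 primary hits at 25 µM. (i) S. Typhimurium SL1344 grown in Mueller-Hinton broth with 0.5 µg/mL polymyxin B, OD600 read after 18 h. (ii) SAFIRE assay: RAW 264.7 macrophages infected with S. Typhimurium sifB::gfp (MOI 30); compound added 2 h post-infection; cells fixed at 18 h; GFP-positive pixel fraction per macrophage imaged by confocal microscopy and expressed as % of DMSO control.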
`O=C(Nc1cccc(-c2ccc(F)cc2)c1)C1CCCN(Cc2cccnc2)C1` (stereo not given) was tested, and the “bacterial growth OD600” value was 0.001.
`Cc1nc(C(=O)NCc2nc(-c3ccccc3NC(=O)CC3CCCC3)oc2C)cs1` was tested, and the “bacterial growth OD600” value was -0.002.
In the case of `Cc1oc(-c2cccc(C(F)(F)F)c2)nc1CN(Cc1ccccc1)C[C@@H]1CCC(=O)N1`, the “bacterial growth OD600” value is reported as -0.006.
`COC1CCN(C(=O)CC(c2ccccc2)c2ccccc2Cl)CC1` (stereo not given) was tested, and the “bacterial growth OD600” value was 0.414.
In the case of `Cc1nc(C(=O)NCc2cccnc2-n2ccnc2)cs1`, the “bacterial growth OD600” value is reported as 0.552.
For `CCOC(=O)C1(CCCc2ccccc2)CCN(C(=O)Cc2cccnc2)CC1`, the “bacterial growth OD600” value was 0.003.
In the case of `CN(Cc1ccc(F)cc1)c1ccc(OCC(=O)NCC2(N3CCOCC3)CCCCC2)nn1`, the “bacterial growth OD600” value is reported as 0.553.
`O=C(CCc1nnc(-c2ccc(-c3ccccc3)cc2)o1)N1CCCCCCC1` was tested, and the “bacterial growth OD600” value was -0.009.
In the case of `Cc1cccc(-c2cnc(-c3ccncc3)nc2C2CCN(C(=O)c3cc(CC(C)C)on3)CC2)c1`, the “bacterial growth OD600” value is reported as -0.001.
For `COc1ccc(-c2ccc(C(=O)N(Cc3ccncc3)Cc3cccc(OCCc4ccc(F)cc4)c3)o2)cc1`, the “bacterial growth OD600” value was -0.003.
With `Cc1ccc2c(c1)CN(CC(=O)NCc1cn3c(C)cccc3n1)CC(c1ccsc1)O2` (stereo not given) the “bacterial growth OD600” value was -0.003.
`CN(Cc1cn(C)nc1-c1ccc2c(c1)OCCO2)Cc1cccc2ncccc12` was tested, and the “bacterial growth OD600” value was 0.635.
`CCOC(=O)C1CCCCN1C(=O)CC1(c2ccc(-c3ccccc3)cc2)CC(=O)N(C)C1=O` (stereo not given) was tested, and the “bacterial growth OD600” value was -0.02.
With `OC(Cc1ccccc1)c1ccc2c(c1)CN(Cc1ccc(OC(F)F)cc1)CCO2` (stereo not given) the “bacterial growth OD600” value was -0.001.
For `COc1ccc2c(c1)OC(C)CN(CC(C)Cc1ccc3c(c1)OCO3)C2` (stereo not given), the “bacterial growth OD600” value was 0.004.
For `CCn1ccnc1CN(C)C(=O)CC(c1ccccc1)c1ccc(Cl)cc1` (stereo not given), the “bacterial growth OD600” value was 0.003.
In the case of `CCOC(=O)C1(Cc2ccccc2F)CCCN(C(=O)c2cc(OC)cc(OC)c2)C1` (stereo not given), the “bacterial growth OD600” value is reported as 0.273.
In the case of `CCOC(=O)C1(CCc2ccccc2)CCCN(C(=O)c2ccc(OC)o2)C1` (stereo not given), the “bacterial growth OD600” value is reported as 0.003.
With `CC(C)/C=C/C(=O)NCCN1Cc2ccccc2OC(c2ccccc2F)C1` (stereo not given) the “bacterial growth OD600” value was -0.003.
For `Cc1ccccc1CNC(=O)c1coc(COc2cccc(F)c2)n1`, the “bacterial growth OD600” value was 0.174.
`CC1CN(Cc2ccc3ncccc3c2)Cc2cc(Cl)ccc2O1` (stereo not given) was tested, and the “bacterial growth OD600” value was 0.001.
In the case of `CCN1C(=O)CC(CC(=O)N2CCCC(c3ccccc3)CC2)(c2cccc(C(F)(F)F)c2)C1=O` (stereo not given), the “bacterial growth OD600” value is reported as -0.009.
For `O=C(c1ccc(Oc2ccccc2)cc1)C1CCCN(C(=O)CN2C(=O)CSC2=O)C1` (stereo not given), the “bacterial growth OD600” value was 0.002.
With `CCOC(=O)C1(Cc2ccccc2C)CCCN(S(=O)(=O)c2ccsc2)C1` (stereo not given) the “bacterial growth OD600” value was -0.003.
For `CC(C)N1CCC(C(=O)N2CCCC(CCc3ccc(F)c(F)c3)C2)CC1` (stereo not given), the “bacterial growth OD600” value was 0.001.
`CCc1ccc(CN(C)C(=O)c2cn(CC3COc4ccccc4O3)nn2)cc1` (stereo not given) was tested, and the “bacterial growth OD600” value was -0.001.
`CCOC(=O)C1(CCc2ccccc2)CCN(C(=O)c2occc2C)CC1` was tested, and the “bacterial growth OD600” value was 0.003.
In the case of `O=S(=O)(c1ccccc1C(F)(F)F)N1CCC(CO)(Cc2ccccc2Cl)CC1`, the “bacterial growth OD600” value is reported as -0.007.
For `Cc1ccsc1CN(C)Cc1cnc(S(=O)(=O)C(C)C)n1Cc1ccccc1F`, the “bacterial growth OD600” value was 0.285.
With `Cc1ccn(CC(=O)N2CCCC(CCc3ccccc3C)C2)n1` (stereo not given) the “bacterial growth OD600” value was 0.021.
`O=C(Nc1cccc(-n2cccn2)c1)C1CCCN1C1Cc2ccccc2C1` (stereo not given) was tested, and the “bacterial growth OD600” value was 0.004.
`COc1ccc(CN(Cc2ccncc2)C(=O)c2sccc2C)cc1OCc1ccccc1F` was tested, and the “bacterial growth OD600” value was 0.002.
`Fc1cccc(C2CCN(CC3CC3)c3ccccc3S2)c1` (stereo not given) was tested, and the “bacterial growth OD600” value was 0.066.
With `CCS(=O)(=O)c1ncc(CN(C)C(C)c2ccccc2OC)n1Cc1ccccc1` (stereo not given) the “bacterial growth OD600” value was 0.003.
In the case of `COc1cc(CN2CCOc3ccc(C(C)(O)COc4ccccc4)cc3C2)ccc1F` (stereo not given), the “bacterial growth OD600” value is reported as -0.004.
For `CC(C)CC(=O)C1CCCN(c2nncc(-c3cccc(Cl)c3)n2)C1` (stereo not given), the “bacterial growth OD600” value was 0.007.
In the case of `CN(Cc1ccccc1)C(=O)c1cn(CCCc2ccccc2)nn1`, the “bacterial growth OD600” value is reported as 0.404.
With `O=S(=O)(c1ccccc1Cl)N1CCCC(CO)(Cc2cccc(Cl)c2)C1` (stereo not given) the “bacterial growth OD600” value was 0.015.
With `Cc1c[nH]c(CN(C)C(=O)C2(N3C[C@@H](C)O[C@@H](C)C3)Cc3ccccc3C2)n1` the “bacterial growth OD600” value was 0.523.
In the case of `O=C1N(CCCc2ccccc2)CCCC12CCN(c1ccccn1)C2` (stereo not given), the “bacterial growth OD600” value is reported as 0.23.
